Test results: the supplement of paper PMC12578646, “Prodrug florfenicol amine is activated by intrinsic resistance to target Mycobacterium abscessus” (Nature Microbiology, 2025)

Experiments:
Assay in all cases: growth relative to untreated wells; higher = more growth
[1] = test system: Mycobacterium abscessus ATCC 19977 WhiB7 A51T with pOLYG-aac(3)IV
Experimental: (§1)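 Two-fold dose series, three replicates; 5 days at 37 °C, then 24 h with resazurin; fluorescence scaled to growth and killed controls.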

[2] = test system: Mycobacterium abscessus ATCC 19977 Eis2 T258R with pOLYG-aac(3)IV
Experimental: as §1

[3] = test system: Mycobacterium abscessus ATCC 19977 Δeis2 with pOLYG-aac(3)IV-eis2
Experimental: as §1

[4] = test system: Mycobacterium abscessus ATCC 19977 Eis2 T258R with pOLYG-aac(3)IV-eis2
Experimental: as §1

[5] = test system: Mycobacterium abscessus ATCC 19977 ΔwhiB7 with pOLYG-aac(3)IV-eis2
Experimental: as §1

[6] = test system: Mycobacterium abscessus ATCC 19977 ΔwhiB7 with pOLYG-aac(3)IV
Experimental: as §1

[7] = test system: Mycobacterium abscessus ATCC 19977 Δeis2 with pOLYG-aac(3)IV
Experimental: as §1

[8] = test system: Mycobacterium abscessus ATCC 19977 WhiB7 A51T with pOLYG-aac(3)IV-eis2
Experimental: as §1

NCC[C@H](O)C(=O)N[C@@H]1C[C@H](N)[C@@H](O[C@H]2O[C@H](CN)[C@@H](O)[C@H](O)[C@H]2O)[C@H](O)[C@H]1O[C@H]1O[C@H](CO)[C@@H](O)[C@H](N)[C@H]1O [amikacin]
growth [%]
Conditions	[1]	[2]	[3]	[4]	[5]	[6]	[7]
0.03125 µg/mL	98.3 ± 7.9	101.5 ± 0.95	85.4 ± 3.2	115 ± 8	105 ± 2.6	92.9 ± 2.9	103 ± 2.7
0.0625 µg/mL	91.2 ± 2.5	99.3 ± 3.7	85.8 ± 3.1	112 ± 2.4	106 ± 4.8	88.4 ± 1.9	99.1 ± 2.3
0.125 µg/mL	110 ± 2.7	108 ± 2.4	84.5 ± 5.1	110 ± 2.2	106 ± 5.3	105 ± 2.2	106.7 ± 0.83
0.25 µg/mL	65.2 ± 37	40.6 ± 16	81.9 ± 3.2	110 ± 2.3	103 ± 5.6	44.9 ± 8.1	81.3 ± 4.1
0.5 µg/mL	-5.07 ± 1.4	-3.79 ± 1.8	81.8 ± 3	107 ± 3.7	97.7 ± 4.7	-4.49 ± 0.95	-1.44 ± 0.78
1 µg/mL	-7.02 ± 1.1	-4.96 ± 2	80.1 ± 2.2	97.5 ± 2.7	83.2 ± 8.3	-5.71 ± 0.85	-2.32 ± 0.36
2 µg/mL	-7.92 ± 1.3	-4.96 ± 1.8	107 ± 3.7	109 ± 6	45.7 ± 1.2	-5.85 ± 0.87	-1.27 ± 2
4 µg/mL	-7.15 ± 1.1	-4.17 ± 2.2	87.3 ± 6.1	88.1 ± 8	13.8 ± 3.6	-5.34 ± 0.83	-2.73 ± 0.28
8 µg/mL	-6.5 ± 0.86	-4.16 ± 1.9	61.6 ± 2.2	46.7 ± 14	-5.87 ± 0.42	-4.73 ± 0.8	-2.14 ± 1.1
16 µg/mL	-4.41 ± 0.85	-2.86 ± 2.2	19.4 ± 2	11.1 ± 14	-4.43 ± 1.2	-3.17 ± 0.75	-2.06 ± 0.48
32 µg/mL	0.0971 ± 1.3	1.52 ± 1.4	0.238 ± 1.1	0.49 ± 3.2	-1.45 ± 0.85	2.37 ± 2.6	-0.959 ± 0.55

CS(=O)(=O)c1ccc([C@@H](O)[C@H](N)CF)cc1 [florfenicol amine]
growth [%]
Conditions	[1]	[2]	[3]	[4]	[5]	[6]	[7]	[8]
1 µg/mL	105.4 ± 0.61	94.8 ± 5.8	114.6 ± 0.21	88.7 ± 3.9	103.4 ± 0.31	106 ± 1.4	96 ± 6.1	107 ± 2.6
2 µg/mL	103 ± 2.8	98.8 ± 2.2	106 ± 2	74.9 ± 2.1	100 ± 0.74	100.3 ± 0.79	92.4 ± 3.2	111 ± 2.8
4 µg/mL	100 ± 1.4	102 ± 1.4	97 ± 0.98	68.2 ± 0.96	100 ± 3.3	96.9 ± 3.1	91.8 ± 9.8	107 ± 8.4
8 µg/mL	100 ± 2.8	98.5 ± 4.2	85.3 ± 2	59.6 ± 1.3	88.4 ± 0.98	95 ± 5	92.9 ± 3.5	82.6 ± 4.2
16 µg/mL	101 ± 2.6	92.99 ± 0.58	62.4 ± 1.5	44.3 ± 4.7	54.4 ± 1.3	103 ± 2.5	96.9 ± 5.6	50.3 ± 3.1
32 µg/mL	101 ± 3.9	70.7 ± 3	35 ± 1.3	17.2 ± 5	32.9 ± 9.8	89 ± 0.95	93.2 ± 3.2	32.5 ± 3.2
64 µg/mL	95.1 ± 3.7	74.5 ± 2	3.86 ± 0.45	-0.505 ± 4.6	1.95 ± 1.3	93.4 ± 1.8	79.2 ± 2.6	-0.64 ± 1.7
128 µg/mL	47.1 ± 10	54.7 ± 3	-3.09 ± 0.71	-1.68 ± 3.8	-2.04 ± 0.55	22.8 ± 14	58.2 ± 7.4	-2.06 ± 2.8
256 µg/mL	0.776 ± 1.6	31.8 ± 2.1	-3.37 ± 0.75	-0.387 ± 3.7	-0.471 ± 0.51	1.63 ± 1.4	26.4 ± 4.2	-1.06 ± 3
512 µg/mL	-1.1 ± 1.7	24.8 ± 1.6	-0.604 ± 4.3	1.57 ± 3.5	-0.0558 ± 0.82	2.07 ± 2.2	8.08 ± 0.97	1.82 ± 3.7
1024 µg/mL	7.05 ± 3.2	13.3 ± 2.4	-1.91 ± 0.52	6.77 ± 2.7	9.56 ± 6.7	4.55 ± 2.2	-0.475 ± 0.67	8.15 ± 5.1

± gives the standard deviation of the averaged measurements. M. abscessus ATCC 19977 and its deletion, point and complemented mutants after 5 days of drug at 37 °C plus 24 h of resazurin. Growth in % of untreated wells at the dose given (lower = more inhibition); checkerboards give % inhibition (higher = more inhibition); IC50 from the fitted curve (lower = more potent). No active / inactive call. IC50 values come from the same 384-well curves. Growth is not capped and can exceed 100%. The direction of the checkerboard scale is read from the raw signals. Capreomycin is a mixture.
